This note sets out measurements from ChEMBL document CHEMBL4888484, “Replenishing the malaria drug discovery pipeline: Screening and hit evaluation of the MMV Hit Generation Library 1 (HGL1) against asexual blood stage Plasmodium falciparum ,using a nano luciferase reporter read-out” (2022).

For the experiment, the system named is Plasmodium falciparum. As to the kind of experiment: Primary screen in NF54 nanoGlo assay, in single point, at 2uM, 72h; a lower Z score goes with more inhibition. Format: functional, Erythrocyte. As to conditions: timepoint 72 hour.

The campaign covered roughly 150,000 compounds. About 540 (0.36%) showed an effect of 50% or more. Some of the results follow.

On to `Cc1cc(C)cc(N2C(=O)C3N=NN(c4ccc(F)cc4)C3C2=O)c1` (centres undefined), for which the “% Inhibition” value is reported as 8% and the Z score is reported as -0.91.

In the case of `Cc1cc(O)cc(=O)n1C[C@H](O)c1ccc(O)cc1`, the “% Inhibition” value is -3% and the Z score was determined as 0.42.

In the case of `CC(C)c1[nH]ccc1C(=O)N1CC(O)(C(F)F)C1`, the “% Inhibition” value is reported as -2% and the Z score is listed as 0.35.

As for `COCCCNC(=O)c1c(C)oc2c1CN(Cc1cccc(F)c1)CC2`, the “% Inhibition” value was -6% and the Z score is listed as 0.56.

As for `CC(=O)N1CCc2cc(S(=O)(=O)N3CCCC3)ccc21`, the “% Inhibition” value was -13% and the Z score was determined as 2.38.

As for `COc1cncc(C(Nc2nc3cc(C)ccc3o2)[C@H]2C[C@@H](O)C2)c1` (some centres undefined), the “% Inhibition” value was -8% and the Z score is 1.51.

Take `O=C(c1ccc[nH]1)N(CCCn1ccnc1)Cc1cccnc1`: the “% Inhibition” value is listed as -7% and the Z score is given as 0.94.

Take `COc1cccc(-c2nn(-c3nc(-c4ccco4)cc(C(F)(F)F)n3)c(-c3cccc(OC)c3)c2C)c1`: the “% Inhibition” value was -3% and the Z score was 0.42.

`Cc1nc(-c2cc(NCc3ccccn3)nc3[nH]ccc23)cc(C(C)C)n1`: the “% Inhibition” value is -3% and the Z score worked out at 0.33.

Turning to `COc1ccc(-c2cnnn2-c2cc(OC)c3c(c2OC)OCO3)cc1`, the “% Inhibition” value is recorded as -4% and the Z score is 0.65.

Consider `NC(=O)C1(O)CCN(C(=O)c2cc(-c3ccccc3)ccc2Cl)CC1`, for which the “% Inhibition” value came out at 0% and the Z score was -0.04.

On to `Cc1cncc(NC(=O)C(=O)NC[C@@H]2CCCN2CC(C)C)c1`, for which the “% Inhibition” value is -11% and the Z score is reported as 1.78.

Turning to `CC[C@H](OC1CCCC1)C(=O)NCCC1CCN(C)CC1`, the “% Inhibition” value is recorded as -11% and the Z score stood at 2.02.

Consider `CC(C)(O)C#Cc1ccc(CN2CCN(Cc3ccsc3)[C@@H](CCO)C2)s1`, for which the “% Inhibition” value is -10% and the Z score turned out to be 1.93.

Turning to `O=C(NCC1(N2CCCCC2)CCOCC1)c1csc(Cl)c1`, the “% Inhibition” value is recorded as -3% and the Z score was determined as 0.33.

On to `CC(C)(O)c1nc2ccccc2n1C[C@H]1CC1(Cl)Cl`, for which the “% Inhibition” value stood at 4% and the Z score is -0.55.

For `CCN(CC(=O)N1CCN(c2ccc(-c3ccc(Cl)cc3Cl)nn2)CC1)C(=O)C1CCC1`, the “% Inhibition” value was -6% and the Z score was 0.74.

Consider `CCN(C)C(=O)CNC(=O)c1sc(-c2c(C)noc2C)nc1C`, for which the “% Inhibition” value is on record as -10% and the Z score was 1.32.

Turning to `CCCS(=O)(=O)N1CC[C@H](Cc2ncc(C)n2Cc2ccccc2)C1`, the “% Inhibition” value was -16% and the Z score was determined as 1.95.

`CCN(CC)c1onc(-c2ccccc2)c1CN(CCN1CCOCC1)C(=O)C(C)C`: the “% Inhibition” value is 10% and the Z score is -1.26.

As for `CCCN(CCC)c1ncnc2c1c(-c1ccccc1)cn2-c1ccccc1`, the “% Inhibition” value is -12% and the Z score worked out at 1.46.

As to `O=C(NCc1ccccc1Cl)c1nc(-c2cn(-c3cccc(F)c3)nn2)no1`, the “% Inhibition” value is recorded as -5% and the Z score was 1.07.

As for `CCCc1ccc(CN2CC[C@](C)(O)[C@H](C)C2)o1`, the “% Inhibition” value worked out at 1% and the Z score was -0.12.

`CC(=O)N1CCN(C(=O)N[C@@H](C)c2ccccc2)CCC12CCOCC2`: the “% Inhibition” value is recorded as -1% and the Z score is 0.12.

`CNC(=O)C1CCCC1NC(=O)Nc1ccnnc1C` (centres undefined): the “% Inhibition” value is -40% and the Z score stood at 4.74.

On to `COc1ccccc1-c1n[nH]c(C)c1NC(=O)c1c(F)cccc1F`, for which the “% Inhibition” value was -3% and the Z score is on record as 0.44.

With `CCN(CC)CCOCCOc1c(C)cccc1C`, the “% Inhibition” value is listed as -5% and the Z score is listed as 1.02.

Turning to `Cc1noc(C)c1CC(=O)Nc1cccc(-c2ccc3c(c2)CCO3)n1`, the “% Inhibition” value is listed as -12% and the Z score came to 2.26.

Consider `Cc1nccn1CCN(C)C(=O)[C@@H]1COc2ccccc2C1`, for which the “% Inhibition” value is given as 1% and the Z score is on record as -0.17.

As for `N#C[C@@H]1C(=O)N=C(N2CCc3ccccc3C2)NC12CCCC2`, the “% Inhibition” value is recorded as -5% and the Z score amounted to 0.6.

For `CN(C)C1(CNC(=O)c2ccccc2)CCCC1`, the “% Inhibition” value is reported as -4% and the Z score was 0.4.

In the case of `Cc1ccc(CN[C@@H]2CO[C@H](CNC(=O)c3ccccc3)[C@H]2O)cc1`, the “% Inhibition” value is -10% and the Z score stood at 1.54.

Turning to `O=C(O)c1cccc(OCCN2CCCCC(C3CCOC3)C2)c1` (centres undefined), the “% Inhibition” value is listed as -14% and the Z score stood at 2.55.

For the compound `Cn1nc(C(=O)N2CCN(c3nccn4nc5c(c34)CCCC5)CC2)ccc1=O`, the “% Inhibition” value is listed as -10% and the Z score worked out at 2.06.

`CC[C@@H](C(=O)N1CCC(Cc2ccccc2)CC1)N1CCN(Cc2ccc(F)cc2)C(=O)C1=O`: the “% Inhibition” value is 1% and the Z score is on record as -0.1.

`Cc1cc(C(=O)N2CCCCC[C@H]2c2cc(C(F)(F)F)nn2C)on1`: the “% Inhibition” value is on record as -14% and the Z score was 1.2.

Regarding `COCCn1c([C@H](C)NC(=O)c2cc(F)ccc2-n2cnnn2)nc2ccccc21`, the “% Inhibition” value amounted to 3% and the Z score was -0.38.

As for `CC(C)NC(=O)N[C@H]1C[C@@H](Cc2cc(-c3ccccc3)on2)C1(C)C`, the “% Inhibition” value is on record as -7% and the Z score amounted to 1.16.

In the case of `CC(CNC(=O)N1C[C@@H](O)C[C@H]1CO)c1c(Cl)cccc1Cl` (some centres undefined), the “% Inhibition” value was -5% and the Z score is on record as 0.69.

With `OC[C@H]1CCCCN1CCNCc1ccc(F)cc1F`, the “% Inhibition” value is -15% and the Z score came out at 1.56.

Turning to `Cc1ccc(C(=O)N[C@@H]2COC3(CCCC3)C2)c(=O)[nH]1`, the “% Inhibition” value is on record as -11% and the Z score was 0.99.

Consider `CCOC(=O)C1(Cc2ccc(Cl)cc2)CCN(Cc2[nH]cnc2C)CC1`, for which the “% Inhibition” value was -1% and the Z score is given as 0.12.

Broadly, the % Inhibition is the change of the read-out against control, counted positive when it falls.
